{"source": "PubChem BioAssay AID1963576", "about": "(National Center for Advancing Translational Sciences (NCATS), 2024)", "note": "Among all 46,000 compounds or so, about 60 (0.1%) were called active. Not shown: some 3% with an inconclusive outcome. Calls follow the shape of the dose curve; as a rule, active = well fitted inhibition curve with a large enough effect; inconclusive = small, poorly fitted or top-dose-only effect; inactive = no such curve, though single readings can be large or run the other way. Some of the results follow."}
{"assay": "Primary qHTS assay for Inhibitors of ovarian cancer metastasis using an organotypic tumor microenvironment (TME) model; also: nearly all actives have a fitted effect of over 65% in size;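 as to activity change, negative = inhibition: plate controls were DMSO wells for no effect and tomatine positive control wells for full effect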.", "settings": "SKOV3ip1-GFP adhesion/invasion on 3D omental model, fluorescence; series mostly up to 45.8 µM; activity change, negative = inhibition: at the top concentration", "summary_of_the_method": "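qHTS, 4-pt dose (0.36-46 umol/L); SKOV3ip1-GFP, 1,200 cells/well, no FBS; primary omental fibroblast/mesothelial co-culture 48 h pre-grown; 2 h RT + 16 h 37 C; PBS wash, 4% PFA; GFP count 488/509 nm.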"}
{"molecule": "CCCCN(CC)C(=O)c1ccc2c(c1)NC(=O)c1ccccc1S2", "outcome": "inactive"}
{"molecule": "CC(=O)c1ccc(NC(=O)CCn2cccn2)cc1", "activity change, negative = inhibition": "inactive: 0.799%"}
{"molecule": "CCc1cccc(NC(=O)C2CCCN2S(=O)(=O)c2ccc3nc(-c4ccccc4)[nH]c3c2)c1", "note": "(stereo not drawn)", "outcome": "inactive"}
{"molecule": "Cc1ccc(Cn2c(=O)n(Cc3ccc(C(=O)NC4CCN(Cc5ccccc5)CC4)cc3)c(=O)c3ccccc32)cc1", "activity change, negative = inhibition": "inactive: -21.9%"}
{"molecule": "COc1ccc(N(CC(=O)N2CCCCC2)S(=O)(=O)c2ccc(OC)c(OC)c2)cc1", "activity change, negative = inhibition": "inactive: -1.79%"}
{"molecule": "Cc1ccc2oc(C(=O)N3CCC(c4nc5ccccc5s4)CC3)c(C)c2c1", "activity change, negative = inhibition": "inactive: 5.8%"}
{"molecule": "CCc1ccc(CNC(=O)c2cccc(-n3c(C)nc4cccnc43)c2)cc1", "activity change, negative = inhibition": "inactive: -7.22%"}
{"molecule": "CCCc1ccc(OCc2ccc(C(=O)Nc3ccccc3C(=O)OC)o2)cc1", "activity change, negative = inhibition": "inactive: 1.43%"}
{"molecule": "Cc1ccc(-n2c(C)nc3c(cnn3-c3ccccc3)c2=O)cc1", "activity change, negative = inhibition": "inactive: -7.42%"}
{"molecule": "CCc1ccc(NC(=O)Cn2c(=O)n(-c3cccc(OC)c3)c(=O)c3c(C)c(C(=O)N(C)C)sc32)cc1", "outcome": "inactive"}
{"molecule": "CN1C(=O)Cc2cc(S(=O)(=O)NCc3ccccc3Cl)ccc21", "activity change, negative = inhibition": "inactive: 1.34%"}
{"molecule": "O=C(c1ccc(Br)cc1)N(Cc1ccco1)c1ccccn1", "activity change, negative = inhibition": "inactive: -0.114%"}
{"molecule": "CO[C@H]1/C=C\\O[C@@]2(C)Oc3c(C)c(O)c4c(O)c(c5c(nc6cc(C)ccn65)c4c3C2=O)NC(=O)C(C)=CC=C[C@H](C)[C@H](O)[C@@H](C)[C@@H](O)[C@@H](C)[C@H](OC(C)=O)[C@H]1C", "activity change, negative = inhibition": "inactive: -15.4%"}
{"molecule": "CCc1ccccc1NC(=O)CC1NCCNC1=O", "note": "(stereo not drawn)", "activity change, negative = inhibition": "inactive: -1.61%"}
{"molecule": "Cc1cc(Nc2cc(CN3CCOCC3)c3nc(C)c(Cc4ccc(Cl)cc4F)n3n2)n[nH]1", "activity change, negative = inhibition": "inactive: -18.1%"}
{"molecule": "O=C(C1CCC(CNS(=O)(=O)c2ccc(Br)s2)CC1)N1CCN(c2ccc(F)cc2)CC1", "note": "(stereo not drawn)", "activity change, negative = inhibition": "inactive: -8.23%"}
{"molecule": "O=C(Nc1cccc(Cl)c1)N1CC2CCCN2c2ccccc21", "note": "(stereo not drawn)", "activity change, negative = inhibition": "inactive: -4.71%"}
{"molecule": "CCOc1ccc(NC(=O)Cn2c(=O)n(CCCCC(=O)NCCc3ccc(Cl)cc3)c(=O)c3ccccc32)cc1", "activity change, negative = inhibition": "inactive: -5.65%"}
{"molecule": "CCOc1ccc(C(=O)Nc2ccc3oc(-c4ccc(C)cc4C)nc3c2)cc1Br", "activity change, negative = inhibition": "inactive: 3.07%"}
{"molecule": "CCOc1ccccc1NC(=O)c1c2c(nc3ccccc13)C(=O)N(C1CCCCC1)C2", "activity change, negative = inhibition": "inactive: 2.03%"}
{"molecule": "COc1ccc(-c2nc3n(n2)C(c2ccccc2OC)C(C(=O)Nc2cccnc2)=C(C)N3)cc1", "note": "(stereo not drawn)", "activity change, negative = inhibition": "inactive: -13.3%"}
{"molecule": "Nc1nnc(-c2cccc(Cl)c2Cl)c(N)n1", "activity change, negative = inhibition": "inactive: -11.4%"}
{"molecule": "O=S(=O)(NCC(c1cccs1)S(=O)(=O)c1ccccc1)c1ccccc1", "note": "(stereo not drawn)", "outcome": "inactive"}
{"molecule": "CCOC(=O)N1CCc2c(sc(NCc3ccc(N(CC)CC)cc3)c2C(=O)Nc2cc(OC)ccc2OC)C1", "activity change, negative = inhibition": "inactive: 1.75%"}
{"molecule": "CCOc1ccc(-n2c(SCC(=O)NCc3ccccc3)nc3n[nH]c(C)c3c2=N)cc1", "activity change, negative = inhibition": "inactive: -7.37%"}
{"molecule": "CCC1CN(C(=O)N2CCC(C(=O)N3CCN(c4ccccc4)CC3)CC2)c2ccccc2O1", "note": "(stereo not drawn)", "activity change, negative = inhibition": "inactive: -17%"}
{"molecule": "Cc1ccc(-n2c(=O)c3ccc(C(=O)NCc4ccco4)cc3n(CC(=O)Nc3ccc(C)c(F)c3)c2=O)cc1", "activity change, negative = inhibition": "inactive: 3.38%"}
{"molecule": "Cc1ccc(NS(=O)(=O)c2ccc3c(c2)N(C)C(=O)CC(=O)N3C)cc1Cl", "activity change, negative = inhibition": "inactive: -10.6%"}
{"molecule": "COc1ccc(CNC(=O)c2ccc3c(c2)nc2n3CCCCC2)cc1", "outcome": "inactive"}
{"molecule": "CC1Cc2cc(S(=O)(=O)CCC(=O)Nc3ccccc3F)ccc2N1C(=O)C1CC1", "note": "(stereo not drawn)", "activity change, negative = inhibition": "inactive: -4.31%"}
{"molecule": "COc1cccc(CN2C(=O)C3(SCC(=O)N3c3ccc(C)c(Cl)c3)c3ccccc32)c1", "note": "(stereo not drawn)", "outcome": "inactive"}
{"molecule": "Cc1cc(C)n(C(C)CC(=O)Nc2ccc(Cl)cc2C)n1", "note": "(stereo not drawn)", "activity change, negative = inhibition": "inactive: 0.71%"}
{"molecule": "CCOc1ccc(Sc2cc(C(=O)NCc3ccc(C)cc3)c3ccccc3n2)cc1", "activity change, negative = inhibition": "inactive: -5.7%"}
{"molecule": "COc1ccc(Cn2ccc3nc(C)c(C(=O)Nc4cc(OC)c(OC)c(OC)c4)cc3c2=O)cc1", "activity change, negative = inhibition": "inactive: -7.49%"}
{"molecule": "CCOc1ccccc1NS(=O)(=O)c1cc2[nH]c(=O)c(=O)[nH]c2cc1C", "activity change, negative = inhibition": "inactive: -8.45%"}
{"molecule": "Cc1cccc(C(=O)n2nc(C)c(S(=O)(=O)N3CCOCC3)c2C)c1", "outcome": "inactive"}
{"molecule": "CCCCC(=O)N1CCc2cc(OC)c(OC)cc2C1COc1ccc(C(=O)OCC)cc1", "note": "(stereo not drawn)", "activity change, negative = inhibition": "inactive: 28.8%"}
{"molecule": "CCOC(=O)c1cc(-c2ccc(C)cc2)n(CCCC(=O)Nc2cc(C)ccc2C)c1", "outcome": "inactive"}
{"molecule": "CC[C@@]1(O)C(=O)OCc2c1cc1n(c2=O)Cc2cc3c(CN(C)C)c(O)ccc3nc2-1", "activity change, negative = inhibition": "inactive: 7.73%"}
{"molecule": "Cc1cc(C)cc(-n2ccn(CC(=O)c3ccc(F)cc3)c(=O)c2=O)c1", "activity change, negative = inhibition": "inactive: 0.907%"}
{"molecule": "O=C(NCc1ccco1)c1ccc2c(c1)N(Cc1ccccc1)C(=O)c1ccccc1S2", "activity change, negative = inhibition": "inactive: 2.7%"}
{"molecule": "CCC1CCCCN1C(=O)c1c[nH]c2ccc(S(=O)(=O)Nc3cccc(OC)c3)cc2c1=O", "note": "(stereo not drawn)", "activity change, negative = inhibition": "inactive: 14.2%"}
{"molecule": "COC(=O)c1scc(-c2ccc(C)cc2)c1S(=O)(=O)N1CCN(c2ccc(F)cc2)CC1", "activity change, negative = inhibition": "inactive: 0.125%"}
{"molecule": "Nc1c(C(=O)NCc2cccs2)nnn1CC(=O)Nc1cccc(F)c1", "activity change, negative = inhibition": "inactive: -2.24%"}
{"molecule": "O=C(c1ccc(CS(=O)(=O)c2ccc(Br)cc2)o1)N1CCN(c2ccc(F)cc2)CC1", "activity change, negative = inhibition": "inactive: -5.88%"}
{"molecule": "Cc1ccc(NC(=O)c2sc3ncnc(N(C)C4CCCCC4)c3c2C)c(C)c1", "activity change, negative = inhibition": "inactive: 1.35%"}
{"molecule": "O=C(O)c1ccc(NS(=O)(=O)c2ccc(Cl)c(C(=O)Nc3ccccc3)c2)cc1", "activity change, negative = inhibition": "inactive: 3.45%"}
{"molecule": "Cc1ccc(N(C)S(=O)(=O)c2ccc3[nH]c(=O)ccc3c2)cc1", "activity change, negative = inhibition": "inactive: 12.3%"}
